{"source": "the supplement of paper PMC9446081", "note": "Out of some 39,000 compounds screened, about 220 (0.56%) showed activity. Some of the results follow.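 Further: static incubation at 37 °C against the wild-type strain, values averaged over two biological replicates.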"}
{"system": "Escherichia coli K-12 BW25113", "assay": "relative growth (OD600 normalised to plate interquartile mean) (fraction); higher = less growth inhibition, active = 0.2 or less", "settings": "50 µM; LB; incubation time: overnight (16-24 h)"}
{"smiles": "Cc1ccc(S(=O)(=O)Nc2ccc3c(c2)CC(=O)N([C@H](C)CO)C[C@H](C)[C@@H](CN(C)S(=O)(=O)c2cccs2)O3)cc1", "relative growth": "inactive: 1.02"}
{"smiles": "COc1ccc(S(=O)(=O)Nc2cccc3c2O[C@H](CN(C)Cc2ccc(Cl)c(Cl)c2)[C@@H](C)CN([C@H](C)CO)C3=O)cc1", "relative growth": "inactive: 0.914"}
{"smiles": "O=C(C[C@H]1NCCNC1=O)Nc1ccccc1", "relative growth": "inactive: 0.998"}
{"smiles": "C[C@@H]1CN([C@@H](C)CO)C(=O)Cc2cc(NC(=O)CCCN(C)C)ccc2O[C@H]1CN(C)S(=O)(=O)c1ccc(Cl)cc1", "relative growth": "inactive: 1.02"}
{"smiles": "C[C@@H]1CN([C@H](C)CO)S(=O)(=O)c2ccc(C#CC3(O)CCCC3)cc2O[C@@H]1CN(C)C(=O)Cc1ccncc1", "relative growth": "inactive: 0.981"}
{"smiles": "O=C1CCSc2ccc(F)cc21", "relative growth": "inactive: 0.976"}
{"smiles": "O=C(C[C@@H]1C[C@H]2c3cc(NC(=O)NC4CCCC4)ccc3O[C@H]2[C@@H](CO)O1)NCc1ccc(Oc2ccccc2)cc1", "relative growth": "inactive: 0.975"}
{"smiles": "Cc1cc(=O)n2nc(S(C)(=O)=O)nc2[nH]1", "relative growth": "inactive: 0.996"}
{"smiles": "C[C@H](CO)N1C[C@H](C)[C@@H](CN(C)C(=O)Nc2ccccc2)Oc2c(NC(=O)C3CCOCC3)cccc2C1=O", "relative growth": "inactive: 0.991"}
{"smiles": "O=C(C[C@@H]1CC[C@H]2[C@@H](COC[C@H](O)CN2S(=O)(=O)c2ccc(Cl)cc2)O1)N[C@@H]1CCN(Cc2ccccc2)C1", "relative growth": "inactive: 0.991"}
{"smiles": "C[C@H](CO)N1C[C@H](C)[C@@H](CN(C)Cc2ccc(Cl)c(Cl)c2)Oc2c(NC(=O)Nc3ccc(C(F)(F)F)cc3)cccc2C1=O", "relative growth": "inactive: 0.914"}
{"smiles": "C[C@H]1CN([C@@H](C)CO)S(=O)(=O)c2ccc(C#Cc3ccccc3F)cc2O[C@@H]1CN(C)C(=O)Cc1ccncc1", "relative growth": "inactive: 0.996"}
{"smiles": "CCC(=O)OC(OP(=O)(CCCCc1ccccc1)CC(=O)N1CC(C2CCCCC2)CC1C(=O)[O-])C(C)C.[Na+]", "note": "(stereo unspecified)", "relative growth": "inactive: 1.01"}
{"smiles": "C[C@@H]1CCCCO[C@@H](CN(C)C(=O)Nc2ccc(F)cc2)[C@H](C)CN([C@H](C)CO)C(=O)c2cc(NS(=O)(=O)c3ccc(F)cc3)ccc2O1", "relative growth": "inactive: 1.01"}
{"smiles": "COc1ccc(NC(=O)Nc2ccc3c(c2)C(=O)N([C@@H](C)CO)C[C@@H](C)[C@H](CN(C)S(=O)(=O)c2cccs2)OCCCC[C@@H](C)O3)cc1", "relative growth": "inactive: 1.02"}
{"smiles": "O=C(N[C@H]1CC=CC[C@H](CC(=O)N(CCO)Cc2ccccc2)C(=O)N[C@@H](Cc2ccccc2)COC1=O)OCC1c2ccccc2-c2ccccc21", "relative growth": "inactive: 0.969"}
{"smiles": "COc1ccc(S(=O)(=O)N(C)C[C@H]2Oc3ccc(NS(=O)(=O)c4cccs4)cc3C(=O)N([C@H](C)CO)C[C@H]2C)cc1", "relative growth": "inactive: 1.02"}
{"smiles": "CN(C)CCCC1(c2ccc(F)cc2)OCc2cc(C#N)ccc21.O=C(O)C(=O)O", "note": "(stereo unspecified)", "relative growth": "inactive: 1.08"}
{"smiles": "Cc1c(C(=O)Nc2ccc(Oc3ccnc4cc(OCC(C)(C)O)ccc34)c(F)c2)c(=O)n(-c2ccccc2)n1C", "relative growth": "inactive: 0.961"}
{"smiles": "C[C@@H]1CN([C@H](C)CO)C(=O)c2cccc(NC(=O)Nc3ccc(C(F)(F)F)cc3)c2O[C@H]1CN(C)S(=O)(=O)c1ccc(Cl)cc1", "relative growth": "inactive: 0.748"}
{"smiles": "C[C@H](CO)N1C[C@H](C)[C@H](CN(C)C(=O)NC2CCCCC2)Oc2ccc(NC(=O)Nc3ccc(C(F)(F)F)cc3)cc2CC1=O", "relative growth": "inactive: 1.03"}
{"smiles": "C[C@@H]1CN([C@H](C)CO)C(=O)c2cc(NC(=O)Nc3cccc4ccccc34)ccc2O[C@@H](C)CCCCO[C@@H]1CN(C)C(=O)c1ccccc1", "relative growth": "inactive: 1.03"}
{"smiles": "C[C@@H]1CN([C@H](C)CO)C(=O)c2cc(C#Cc3cccnc3)cnc2O[C@H]1CN(C)S(C)(=O)=O", "relative growth": "inactive: 0.999"}
{"smiles": "NCc1ccc2cc[nH]c(=O)c2c1", "relative growth": "inactive: 1.01"}
{"smiles": "CC(C)(C)[S@@](=O)N1Cc2cc(C(=O)NCc3ccccc3F)nc(-c3cccc(-c4ccncc4)c3)c2[C@H]1CCO", "relative growth": "inactive: 1.01"}
{"smiles": "C[C@@H]1CN([C@H](C)CO)C(=O)c2cccc(NC(=O)c3cnccn3)c2O[C@@H]1CN(C)Cc1ccncc1", "relative growth": "inactive: 0.983"}
{"smiles": "C[C@@H]1CN([C@@H](C)CO)C(=O)c2cccc(NS(=O)(=O)c3ccccc3)c2O[C@H]1CN(C)Cc1ccc(Cl)c(Cl)c1", "relative growth": "inactive: 1.02"}
{"smiles": "O=C(C[C@H]1CC[C@H]2[C@@H](COC[C@H](O)CN2S(=O)(=O)c2ccc(Cl)cc2)O1)N[C@H]1CCN(Cc2ccccc2)C1", "relative growth": "inactive: 1.02"}
{"smiles": "Cc1noc(C)c1S(=O)(=O)Nc1ccc2c(c1)CC(=O)N([C@@H](C)CO)C[C@H](C)[C@H](CN(C)C(=O)NC1CCCCC1)O2", "relative growth": "inactive: 1.03"}
{"smiles": "C[C@@H]1CCCCO[C@H](CN(C)Cc2ccc(Cl)c(Cl)c2)[C@@H](C)CN([C@H](C)CO)C(=O)c2cc(NC(=O)Cc3ccccc3)ccc2O1", "relative growth": "inactive: 1.02"}
{"smiles": "C[C@@H]1CCCCO[C@@H](CN(C)C(=O)Nc2ccc3c(c2)OCO3)[C@H](C)CN([C@@H](C)CO)C(=O)c2cc(NC(=O)Cc3ccccc3)ccc2O1", "relative growth": "inactive: 1.03"}
{"smiles": "C[C@H]1CCCCO[C@H](CN(C)C(=O)NC2CCCCC2)[C@@H](C)CN([C@@H](C)CO)C(=O)c2cc(NC(=O)Nc3ccccc3)ccc2O1", "relative growth": "inactive: 1"}
{"smiles": "C[C@H]1CCCCO[C@@H](CN(C)C(=O)Cc2ccccc2)[C@@H](C)CN([C@@H](C)CO)C(=O)c2cc(NC(=O)CCC(F)(F)F)ccc2O1", "relative growth": "inactive: 0.984"}
{"smiles": "CCCNC(=O)N(C)C[C@@H]1Oc2cc(C#Cc3cccc(F)c3)ccc2S(=O)(=O)N([C@@H](C)CO)C[C@@H]1C", "relative growth": "inactive: 0.992"}
{"smiles": "CC1=CC2(CO)C(=O)[C@]3(CO3)C1[C@H]1[C@]2(C)C=C(CO)C(=O)[C@]12CO2", "note": "(stereo partly specified)", "relative growth": "inactive: 0.857"}
{"smiles": "COc1ccccc1S(=O)(=O)N1C[C@H](O)COC[C@@H]2O[C@@H](CC(=O)O)CC[C@H]21", "relative growth": "inactive: 0.997"}
{"smiles": "C[C@H](NC(=O)C[C@H]1C=C[C@H](NC(=O)CN2CCOCC2)[C@H](CO)O1)c1ccccc1", "relative growth": "inactive: 1.01"}
{"smiles": "COc1ccc(CC[C@@H](OC(=O)[C@H]2CCCCN2C(=O)Cc2ccccc2)c2cccc(OCC(=O)O)c2)cc1OC", "relative growth": "inactive: 0.943"}
{"smiles": "O=C(C[C@H]1C[C@@H]2c3cc(NS(=O)(=O)c4ccc(F)cc4)ccc3O[C@@H]2[C@@H](CO)O1)NCc1ccncc1", "relative growth": "inactive: 0.99"}
{"smiles": "C[C@@H]1CCCCO[C@H](CN(C)S(=O)(=O)c2cccs2)[C@@H](C)CN([C@H](C)CO)C(=O)c2cc(NC(=O)NC3CCCCC3)ccc2O1", "relative growth": "inactive: 0.999"}
{"smiles": "C[C@@H]1CN([C@H](C)CO)C(=O)Cc2cc(NC(=O)CCN3CCOCC3)ccc2O[C@H]1CN(C)C(=O)Nc1ccc(F)cc1", "relative growth": "inactive: 1.01"}
{"smiles": "CN(C)C(=O)c1ccc(-c2cccc(-c3nc(C(=O)NC4CCC4)cc4c3[C@H](CCO)N([S@@](=O)C(C)(C)C)C4)c2)cc1", "relative growth": "inactive: 0.984"}
{"smiles": "C[C@@H]1CN([C@@H](C)CO)S(=O)(=O)c2ccc(C#C[C@@H](C)O)cc2O[C@H]1CN(C)C(=O)CN(C)C", "relative growth": "inactive: 0.998"}
{"smiles": "COc1ccccc1C#Cc1ccc2c(c1)O[C@H](CN(C)Cc1cncnc1)[C@@H](C)CN([C@H](C)CO)S2(=O)=O", "relative growth": "inactive: 1.01"}
{"smiles": "CNC[C@@H]1Oc2ccc(NC(=O)Cn3cnnn3)cc2C(=O)N([C@H](C)CO)C[C@@H]1C", "relative growth": "inactive: 0.986"}
{"smiles": "Cc1noc(C)c1S(=O)(=O)N(C)C[C@@H]1Oc2c(NS(=O)(=O)c3ccc(F)cc3)cccc2C(=O)N([C@H](C)CO)C[C@@H]1C", "relative growth": "inactive: 1.01"}
{"smiles": "C=C(C)C1COc2cc3oc(=O)ccc3cc2O1", "note": "(stereo unspecified)", "relative growth": "inactive: 1.11"}
{"smiles": "C[C@H]1CN([C@@H](C)CO)C(=O)c2cccc(NC(=O)c3ccc(-c4nccs4)cc3)c2O[C@H]1CN(C)Cc1ccccc1", "relative growth": "inactive: 0.989"}
{"smiles": "NC(Cc1cc(I)c(Oc2ccc(O)c(I)c2)c(I)c1)C(=O)O", "note": "(stereo unspecified)", "relative growth": "inactive: 1.07"}
{"smiles": "C[C@@H]1CN([C@H](C)CO)C(=O)c2cccc(NC(=O)C3CCOCC3)c2O[C@H]1CN(C)Cc1ccc(C(=O)O)cc1", "relative growth": "inactive: 0.963"}
{"smiles": "CSc1ncc(F)c(N(CCO)CCO)n1", "relative growth": "inactive: 1.01"}
{"smiles": "COCCN1C[C@H]2[C@H](OC)CCN(S(=O)(=O)c3cn(C)cn3)[C@H]2C1", "relative growth": "inactive: 1.01"}
{"smiles": "C/C=C/COc1nc2c(c(=O)n(C)c(=O)n2C)n1C", "relative growth": "inactive: 0.994"}
{"smiles": "COCC#Cc1ccc2c(c1)O[C@@H](CN(C)C(=O)COC)[C@H](C)CN([C@@H](C)CO)S2(=O)=O", "relative growth": "inactive: 0.976"}
{"smiles": "C[C@@H]1CN([C@H](C)CO)C(=O)c2cc(NC(=O)Nc3ccc(C(F)(F)F)cc3)ccc2O[C@@H](C)CCCCO[C@@H]1CN(C)Cc1ccc2c(c1)OCO2", "relative growth": "inactive: 1.03"}
{"smiles": "C[C@@H]1CCCCO[C@H](CN(C)C(=O)c2ccccc2)[C@H](C)CN([C@H](C)CO)C(=O)c2cc(NS(=O)(=O)c3cccs3)ccc2O1", "relative growth": "inactive: 0.987"}
{"smiles": "C[C@@H]1CN([C@H](C)CO)C(=O)c2cc(NC(=O)Nc3ccc(C(F)(F)F)cc3)ccc2O[C@H]1CN(C)C(=O)NC1CCCCC1", "relative growth": "inactive: 0.838"}
{"smiles": "COc1ccc(CNC(=O)C[C@@H]2CC[C@@H]3[C@@H](COc4ccc(NC(=O)C(C)C)cc4C(=O)N3C)O2)cc1", "relative growth": "inactive: 1"}
{"smiles": "CN(C)CCCN1C(=O)[C@@]2(Cc3ccccc31)c1ccccc1C(=O)N(Cc1ccccc1)[C@H]2c1ccc(CO)cc1", "relative growth": "inactive: 1"}
{"smiles": "C[C@@H]1CN([C@H](C)CO)C(=O)c2cc(NC(=O)Nc3ccc(C(F)(F)F)cc3)ccc2O[C@@H](C)CCCCO[C@@H]1CN(C)S(=O)(=O)c1cn(C)cn1", "relative growth": "inactive: 1.05"}
{"smiles": "Cc1ccc(S(=O)(=O)N(C)C[C@@H]2Oc3ccc(N(C)C)cc3CC(=O)N([C@@H](C)CO)C[C@H]2C)cc1", "relative growth": "inactive: 0.991"}
